This is one part of the list.

The target in the assay is T1, OsWOX13 (Oryza sativa, UniProt Q5QMM3 1-267).
T1 sequence: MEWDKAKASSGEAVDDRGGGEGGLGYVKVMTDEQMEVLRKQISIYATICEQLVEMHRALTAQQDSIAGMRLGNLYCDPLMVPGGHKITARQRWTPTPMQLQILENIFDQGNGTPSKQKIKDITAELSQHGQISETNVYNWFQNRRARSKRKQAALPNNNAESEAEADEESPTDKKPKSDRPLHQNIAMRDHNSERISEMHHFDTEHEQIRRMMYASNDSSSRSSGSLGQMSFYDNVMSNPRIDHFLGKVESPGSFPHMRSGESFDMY
The experiment in a line: protein-binding microarray (RPBM); PBS, 2% BSA, 51.3 ng/ul salmon testes DNA, 50 uM zinc acetate, 200 nM TF, 25 C, 1 h; high values mean tight binding. To be noted: protein: recombinant; tags: N-terminal polyhistidine and DsRed monomer fusion (pET32a); label: CyDye5-dUTP incorporated in the synthesized complementary strand; 3' TTTTT single-stranded linker to array surface; dsDNA, one strand shown. In a few lines:
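Polyhistidine-tagged DsRed fusions of transcription factors, joined at the N-terminus, were expressed in E. coli BL21-CodonPlus and isolated on Ni–NTA. They were incubated at 200 nM for 1 h at 25 °C on a custom Agilent array, double-stranded and BSA-blocked, in PBS with 2% BSA, salmon testes DNA and 50 µM zinc acetate. The binding signal is per-feature fluorescence intensity (arbitrary units) read on an Axon 4000B scanner after washing.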
For “CGGTGTTGATTTGTGGAGCTAAGGTCTCGCAAAGTTCTACCGGAGTCACCTAGTGCAG”, the binding signal was 11900 fluorescence intensity (a.u.).
Next, “TCAAACTGACTGGCACGCTCGCATCTCATCAATCGTTGGACGGAGTCACCTAGTGCAG”: 25100 fluorescence intensity (a.u.); “ATGTTAAATTAGTCTTAGTGCTTCCACCCTAGTAAACAACCGGAGTCACCTAGTGCAG”: 4320 fluorescence intensity (a.u.).
Turning to “CAATCATTTACAGATTAGTTTACCGCATATCATTAGATGCCGGAGTCACCTAGTGCAG”, the binding signal is 6560 fluorescence intensity (a.u.).
With “GTTTGACCAGATGCTTTCAATTTCCTATGACTCATTTATTCGGAGTCACCTAGTGCAG” the figure was 3280 fluorescence intensity (a.u.); with “TGTACTGTGATAGACTGAGTTTACTAAACGAATGCATCATCGGAGTCACCTAGTGCAG”, 13100 fluorescence intensity (a.u.); with “CGCATTAATGAGTCATCCTAACATACATATAAATCTACACCGGAGTCACCTAGTGCAG”, 5340 fluorescence intensity (a.u.).
Next, “GCGTTAATGACAATGACAGTTGGGCCCCATTGTATTGTTACGGAGTCACCTAGTGCAG”: 18300 fluorescence intensity (a.u.); “CTAGTTGCAGTATAAATTGACTACGAGTAGGGAGGAAGAGCGGAGTCACCTAGTGCAG”: 4300 fluorescence intensity (a.u.).
Next, “TTTAATTTCAAAGTAATGATATGCACTTGCTAGTGTAATGCGGAGTCACCTAGTGCAG”: 13500 fluorescence intensity (a.u.); “GGTTAATTTGACATAAACAGCGTCAGAAATGTAGTTCATGCGGAGTCACCTAGTGCAG”: 57900 fluorescence intensity (a.u.).
With “TTTTCACTAAATTCTGATGAAATTTCAAACGGAACTATTCCGGAGTCACCTAGTGCAG”, the binding signal was 3340 fluorescence intensity (a.u.).
With “TTGATTTTAATTAAAGTCAAAACATCTTATAACCTGAGGGCGGAGTCACCTAGTGCAG”, the binding signal was 48200 fluorescence intensity (a.u.).
With “AGAGTTAAACAAATAAATAAACTAAATGAATTCGTACCTTCGGAGTCACCTAGTGCAG” the figure was 5610 fluorescence intensity (a.u.); with “AAAGCTTAATTATTACTCCCTCCGTTTTAAAATGTTTGACCGGAGTCACCTAGTGCAG”, 12200 fluorescence intensity (a.u.).
As for “TAGTAAATTTACCTGTCAAGACATGGCCAAGTGATTGGTACGGAGTCACCTAGTGCAG”, the binding signal is 28700 fluorescence intensity (a.u.).
Next, “GTATCTAGATTGGATACATCGAAACCATTTATATAAGTAACGGAGTCACCTAGTGCAG”: 13200 fluorescence intensity (a.u.); “TTATTAATTAAGCCTAATTAATCTGTTATTAGCAAATGTTCGGAGTCACCTAGTGCAG”: 51600 fluorescence intensity (a.u.); “TATATAATCCAATCTATCTCCATCCATCCCGATTCTTCTCCGGAGTCACCTAGTGCAG”: 5380 fluorescence intensity (a.u.).
Next, “ATTAGATTTACACGGCTTTATATATCTATGCGCCTCTTGTCGGAGTCACCTAGTGCAG”: 8310 fluorescence intensity (a.u.); “GACAAGTTGATAGAAAGCCTATGAACGTAAGCACTCCCTCCGGAGTCACCTAGTGCAG”: 4760 fluorescence intensity (a.u.).
Next, “ATGCAACCAATCAGTATTAAGATGACTCCTCAAGTTTAGTCGGAGTCACCTAGTGCAG”: 16400 fluorescence intensity (a.u.).
Regarding “CGCTCTCCTAATTACCGCATTAACTCCCTTCCCTTCCCACCGGAGTCACCTAGTGCAG”, the binding signal is 19300 fluorescence intensity (a.u.).
With “TTTGACAAGTACGTGATTAATTATTTTGGCTTGAACTGTCCGGAGTCACCTAGTGCAG” the figure was 34000 fluorescence intensity (a.u.); with “TTGATTGATATTTTAAATTAACTTTATATACAAGCTAAAACGGAGTCACCTAGTGCAG”, 34400 fluorescence intensity (a.u.).
Turning to “GACAACGGATTGGATGATGATAGAGAGGGGAAAGGGAGTACGGAGTCACCTAGTGCAG”, the binding signal was 12200 fluorescence intensity (a.u.).
Consider “AAGGGAATTAGTTAATTCACTTAATTGCCTCCTTATCCATCGGAGTCACCTAGTGCAG”, for which the binding signal was 18300 fluorescence intensity (a.u.).
With “TACTTAATTTTGTTAGTGTAATAATCTGTGGATCATGCGGCGGAGTCACCTAGTGCAG” the figure was 25700 fluorescence intensity (a.u.).
In the case of “ACTTTCTGTCAAGCGTCCGAATTACGGCGTCTCCTCGCCCCGGAGTCACCTAGTGCAG”, the binding signal is 3420 fluorescence intensity (a.u.).
With “GGTGGGACTGATTAGAAGTCAGAAGAACAGCTTCCTTCATCGGAGTCACCTAGTGCAG” the figure was 19900 fluorescence intensity (a.u.); with “ACCATCTGTCATGTCAAGATCATGACGTTTATTATATGATCGGAGTCACCTAGTGCAG”, 3780 fluorescence intensity (a.u.); with “ATAATTAGCATCAGCACCATCTAGCCATGTATGCAAACCCCGGAGTCACCTAGTGCAG”, 8760 fluorescence intensity (a.u.).
Regarding “TTGACGAGTAGAAATTAGTATTCACCTTAATATAACTCATCGGAGTCACCTAGTGCAG”, the binding signal was 6150 fluorescence intensity (a.u.).
With “TTAGTAATTAATTTATTATACGTTATTTCTAAAAGGTGCGCGGAGTCACCTAGTGCAG” the figure was 31700 fluorescence intensity (a.u.).
Next, “TGACTTTGATTGAATTGATTAGCCTTTGTCGCAATGCATCCGGAGTCACCTAGTGCAG”: 41600 fluorescence intensity (a.u.); “TATATATATATATATATATATATATATATATATATAGACACGGAGTCACCTAGTGCAG”: 7880 fluorescence intensity (a.u.); “ATGTGATTATAGCTGATTTATAATCTGTATTATATATGTTCGGAGTCACCTAGTGCAG”: 44900 fluorescence intensity (a.u.).
Next, “TTATGTAATTATAATTTATTTTATTGTGACTTGATTTATCCGGAGTCACCTAGTGCAG”: 34000 fluorescence intensity (a.u.); “TCATCAAATCTGAATCTGAAATGAAGATTGAAGAACACCCCGGAGTCACCTAGTGCAG”: 3410 fluorescence intensity (a.u.); “AGACCTAAATGATACTAATGATACTGTTAGACAAGTTCTACGGAGTCACCTAGTGCAG”: 4470 fluorescence intensity (a.u.).
As to “CTAATAATTAAGTTCACGAGCTCGAGCTCTAGTCATTGGTCGGAGTCACCTAGTGCAG”, the binding signal was 6660 fluorescence intensity (a.u.).
Next, “TGTTATTTCAATCTCAGGATTGAGTGCAAGCAATCTGTTTCGGAGTCACCTAGTGCAG”: 4210 fluorescence intensity (a.u.).

The values are drawn from paper PMC7819943, “Rice protein-binding microarrays: a tool to detect cis-acting elements near promoter regions in rice”.
